SMILES strings stand for the structures. Where “and” joins values, the source holds several entries; their conditions need not be identical. Equal values may be shown once. The campaign covered roughly 48,000 compounds. About 1,200 (2.5%) were called active. Inconclusive results (about 2%) are left out.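 How the source made its calls: active means activation of at least 60% and not above a set upper limit (about 1 call in 100 departs from these limits); inconclusive means activation of 40% to 60%, or above that upper limit; inactive means activation under 40%.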 The list shows a part of the results.

This test addresses Probable G-protein coupled receptor 32 (Homo sapiens) (UniProt O75388). Nature of the test: qHTS for Agonists of Human Resolvin D1 Receptor DRV1. The following applies: CHO-K1 GPR32 beta-arrestin PathHunter luminescence, 90 min; at 76.9 µM; stronger effect = higher value; zero percent set by DMSO-only wells. The procedure, abridged: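 Using DMSO wells as EC0, agonist-induced signal was taken as chemiluminescence from beta-Gal reconstituted upon beta-arrestin recruitment to GPR32 in CHO-K1 cells after 90 min compound treatment.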
Chain of UniProt O75388 (O75388 whole entry, looked up): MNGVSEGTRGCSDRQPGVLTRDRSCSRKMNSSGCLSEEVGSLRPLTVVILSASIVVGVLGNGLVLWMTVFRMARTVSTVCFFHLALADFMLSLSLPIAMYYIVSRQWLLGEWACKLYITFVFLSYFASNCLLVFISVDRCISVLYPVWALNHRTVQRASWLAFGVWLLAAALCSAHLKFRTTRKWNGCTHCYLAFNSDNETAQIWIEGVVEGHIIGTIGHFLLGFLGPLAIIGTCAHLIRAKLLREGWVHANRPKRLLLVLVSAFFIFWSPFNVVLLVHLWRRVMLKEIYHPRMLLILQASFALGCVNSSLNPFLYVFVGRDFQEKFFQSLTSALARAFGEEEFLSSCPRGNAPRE
Background: Quantitative high-throughput screening tests each substance at several concentrations.
As for `O=C(CC1N=C2c3ccccc3N=C(SCc3ccc(Cl)cc3)N2C1=O)NCc1cccs1` (stereo not given), the activation was inactive: -12.2%. Regarding `COc1ccc(N2CCN(C(=O)C3CCN(S(=O)(=O)c4cccs4)CC3)CC2)cc1`, the activation is inactive: 26.3%. On to `Cc1ccc(CN2CCSc3ccc(C(=O)N4CCN(c5ccccc5)CC4)cc32)cc1`, for which the activation is inactive: -30.5%.

For the molecule `O=c1c2cc3c(cc2n(Cc2ccc(Cl)cc2)c(=O)n1Cc1nc(-c2ccccc2)no1)OCO3`, the activation was inactive: -0.0942%.

Consider `Cc1ccc(-n2c(Cc3ccccc3)nnc2SCc2nc(-c3cccs3)no2)cc1`, for which the activation is inactive: -40.1%. In the case of `Cc1ccc(/C=C/c2onc(C)c2S(=O)(=O)N2CCC(C(=O)N3CCC(N(C)C(C)C)CC3)CC2)cc1`, the activation was inactive: -26.7%. With `Cc1ccc(C)c(CN2CCCN(Cc3ccc(F)cc3)S2(=O)=O)c1`, the activation is inactive: -21.6%. The value for `O=C(Nc1cccc(Cl)c1)c1cnc2sc(N3CCCC3)nn2c1=O` was inactive: -16.6%. `CN1C(=O)Cc2cc(S(=O)(=O)N3CCN(c4ccccc4F)CC3)ccc21`: the activation is inactive: -11.6%. Then `Cc1ccc(-c2noc(C(C)NS(=O)(=O)c3ccc(C)cc3)n2)cc1` (stereo not given), with inactive: -4.04%. Regarding `COc1ccc(CNC(=O)Cc2c(C)c3cc4c(C)coc4c(C)c3oc2=O)cc1`, the activation is inactive: -7.96%.

In the case of `Cc1nc(-n2nc(C)c(Cc3ccccc3Cl)c2C)sc1C(=O)Nc1ccccc1F`, the activation was inactive: 5.41%. For `CC(C)c1ccc(C2=CC(c3ccc(C(C)C)cc3)n3nnnc3N2)cc1` (stereo not given), the activation is inactive: -33.4%.

Regarding `Cc1ccc2nc3c(cc(C(=O)NCC4CCCO4)c(=N)n3C(C)C)c(=O)n2c1` (stereo not given), the activation was inactive: -2.51%. On to `CC(=O)c1ccc(S(=O)(=O)N2CCn3cccc3C2c2ccc(C)cc2)cc1` (stereo not given), for which the activation is inactive: -14.7%.

Regarding `CCOC(=O)Cn1c(=O)n(CC2CCCO2)c2nc(-c3ccc(C)cc3)nc(C(N)=O)c21` (stereo not given), the activation is inactive: -1.43%. The value for `CN1C(=O)CC[C@H]1c1cccnc1` was inactive: 28.3% and inactive: 3.74%; that for `COc1ccc(Cl)cc1NC(=O)Cc1ccc(NC(=O)N2CCCCc3ccccc32)cc1` was inactive: 3.59%; that for `COc1ccccc1NC(=O)C(=O)NCC(c1ccc2c(c1)OCO2)N1CCOCC1` (stereo not given) was inactive: 8.35%. Consider `Cc1ccccc1CNC(=O)c1cnc2sc(N3CCOCC3)nn2c1=O`, for which the activation was inactive: -6.31%.

For `Cc1ccc(NC(=O)CN(C)S(=O)(=O)c2ccc3c(c2)n(C)c(=O)c(=O)n3C)cc1C`, the activation was inactive: -5.47%. Turning to `Cc1ccc(-c2nc3c4ccccc4n(CC(=O)N4CCN(c5ccccc5F)CC4)c(=O)n3n2)cc1`, the activation is inactive: 5.46%. Then `Cc1nc(SC(C)C(=O)Nc2ccccc2C)cc(-c2ccccc2)n1` (stereo not given), with inactive: -18.5%; and `COc1ccc(CNC(=O)c2cc(-c3ccc(OC)cc3)on2)cc1`, with inactive: 0.708%.

Regarding `Cc1ccc(-n2nnnc2CNC(=O)C(C)(C)C)cc1C`, the activation was inactive: -6.75%.

With `CCOc1ccc(CCNC(=O)Cn2nc(C)n3c(cc4occc43)c2=O)cc1OCC`, the activation is inactive: -44.6%. Then `Cc1ccccc1C(=O)c1cccn1CC(=O)NCc1ccccc1`, with inactive: -21.7%; and `Cc1ccc(C)c(OCCn2c(-c3ccc(Cl)cc3)nc3ccccc3c2=O)c1C`, with inactive: 4.24%. Take `CCn1c2ccccc2c2nnc(SCC(=O)O)nc21`: the activation is inactive: -9.49%. Then `CCOC(=O)c1ccccc1O`, with inactive: 7.48%; and `COc1ccc(CNC(=O)CSc2nc(-c3ccc(OC)cc3)cc(C(F)(F)F)n2)cc1`, with inactive: -8.61%. With `CC(C)Oc1ccc(CNC(=O)c2cc3ccccn3n2)cc1`, the activation was inactive: 33.6%.

As to `CC(=O)Nc1ccc(S(=O)(=O)N2CCC(n3c(C(F)(F)F)nc4cccnc43)CC2)cc1`, the activation is inactive: 12.4%. `COc1cccc(-c2cc(C(=O)Nc3cc(Cl)ccc3O)on2)c1`: the activation is inactive: -20.6%.

For the molecule `Cc1ccc(CCNC(=O)CCCn2nc(C)c3c(C)n(-c4ccccc4)nc3c2=O)cc1`, the activation is inactive: 13.7%. For `COC(=O)c1ccc(NC(=O)CCS(=O)(=O)c2ccc(Br)cc2)cc1`, the activation is inactive: -9.15%. The value for `CC(=O)c1cc2c(cc1N/C(=N/S(=O)(=O)c1ccc(C)cc1)c1ccccc1)OCO2` was inactive: -37.3%. Then `Cc1cc(C)c(NC(=O)Cn2c(=O)n(CC(=O)NCc3ccccc3Cl)c(=O)c3sccc32)c(C)c1`, with inactive: -4.67%. Regarding `COC(=O)C(NC(=O)CC(C)C)(Nc1nc2c(s1)CCCC2)C(F)(F)F` (stereo not given), the activation is inactive: -14.5%. The value for `CCOC(=O)c1c(NC(=O)/C=C/c2ccc(OCC)cc2)sc(C)c1C` was inactive: 8.88%; that for `CCOc1ccc(CNCc2c(C(=O)O)n(Cc3ccccc3F)c3cc(OC)ccc23)cc1` was inactive: -10.5%. In the case of `CCc1cnc2c(c1SCC(=O)N1CCCCC1)c(=O)n(C)c(=O)n2C`, the activation was inactive: -5.25%. Then `CCCCOc1ccc(C(=O)NCCS(=O)(=O)N2CCN(c3ccc(F)cc3)CC2)cc1`, with inactive: -9.03%; and `O=C(CSc1nc2ccccc2nc1Cc1ccccc1)NCc1ccccc1Cl`, with inactive: -1.01%; and `COc1ccc(NC(=O)CSc2nc(-c3cccs3)cc(C(F)(F)F)n2)cc1OC`, with inactive: 21.7%. The value for `CCC(=O)N1CCc2cc(Br)cc(S(=O)(=O)N3CCC(C(=O)Nc4ccc(OC)cc4)CC3)c21` was inactive: -7.73%; that for `COc1ccc(C(=O)NC2(C(F)(F)F)C(=O)NC(C)=C2C#N)cc1OC` (stereo not given) was inactive: -2.1%; that for `COc1ccc(-c2cc(C(=O)O)n(Cc3ccccc3)n2)cc1` was inactive: -12%. The value for `COc1ccc(CN(C(=O)COc2ccccc2OC)C2CCS(=O)(=O)C2)cc1` (stereo not given) was inactive: 2.25%.

Turning to `CCCCN(CC)CCCNC(=O)c1sc2nc(C)cc(C)c2c1-n1cccc1`, the activation is inactive: -3.77%. Then `CCc1ccc(NC(=O)c2ccc3c(O)c(S(=O)(=O)c4ccc(Cl)cc4)c(=O)[nH]c3c2)cc1`, with inactive: -3.58%. As to `Cc1cccc(OC(C)C(=O)Nc2ncn[nH]2)c1` (stereo not given), the activation is inactive: 8.4%. Then `Cc1ccc(S(=O)(=O)N(CC(O)Cn2c3ccccc3c3ccccc32)c2cccc(C(N)=O)c2)cc1` (stereo not given), with active: 85.6%; and `Cc1ccc(C)c(NC(=O)CN2C(=O)CCc3ccccc32)c1`, with inactive: -1.77%; and `Cc1cccc2nc(-c3ccco3)c(Nc3ccc4c(c3)OCO4)n12`, with inactive: -12%.

As to `CCOC(=O)C1CCCN(S(=O)(=O)c2ccc(F)c(C(=O)Nc3ccc(F)c(F)c3)c2)C1` (stereo not given), the activation was inactive: -19%. The value for `CS(=O)(=O)OCCCCOS(C)(=O)=O` was inactive: -17.2%; that for `CCc1nn2c(=O)cc(COC(=O)c3cccc(NC(=O)c4ccccc4Cl)c3)nc2s1` was inactive: -10.8%; that for `CCc1ccc2c(c1)c(=O)c(S(=O)(=O)c1ccc(F)cc1)cn2CC(=O)Nc1ccc(C)cc1C` was inactive: -4.62%. Consider `Cc1ccc(CNC(=O)C2CCCN(S(=O)(=O)c3cccc4nsnc34)C2)cc1` (stereo not given), for which the activation is inactive: -3.37%.

On to `Cc1ccc2c(c1)C(c1ccc(F)cc1)N(C(=O)COc1ccc(Cl)cc1Cl)CC(=O)N2` (stereo not given), for which the activation is inactive: -31.6%.

`O=C(CSc1c2c(nc3ccc(Cl)cc13)CCCC2)N1CCN(c2cccc(Cl)c2)CC1`: the activation is inactive: -31.5%. The value for `COc1ccc(CNC(=O)c2cnc3sc(N4CCCC4)nn3c2=O)cc1OC` was inactive: 6.88%; that for `Cc1cccc(NC(=O)c2ccc(N(Cc3ccccc3)S(C)(=O)=O)cc2)c1` was inactive: 45.2%.

As for `CCN(CCCNC(=O)c1cc2c(=O)n(C)c3ccccc3c2s1)Cc1ccccc1`, the activation was inactive: 4.81%. Then `Cc1cc2ncn(CCCCOc3ccccc3)c2cc1C`, with inactive: -52.1%. Then `CCOC(=O)c1cccc(NC(=O)CN2C(=O)c3ccccc3Sc3ncccc32)c1`, with active: 72%; and `COc1cc(-c2nnn(CC(=O)Nc3ccc(OC(F)(F)F)cc3)n2)cc(OC)c1OC`, with inactive: 25.7%. Consider `CCOC(=O)c1c(C)[nH]c(CCC(=O)Nc2cc(C)ccc2OC)c1C`, for which the activation is inactive: -25%. For `CC1CCC(NC(=O)c2ccc3c(c2)N(Cc2ccccc2)C(=O)c2ccccc2S3=O)CC1` (stereo not given), the activation is inactive: -15.1%.

As for `Cc1ccc(C(=O)NCc2ccc(N(C)C)cc2)cc1NC(=O)c1nsc2ccccc12`, the activation was inactive: -32.5%. With `COc1cc(NC(=O)CC2C(=O)N(c3ccc(Cl)cc3)C(=O)N2Cc2cccs2)cc(OC)c1` (stereo not given), the activation is inactive: -17.7%. The value for `CN1C(C(=O)Nc2ccc(F)cc2F)=CC(c2ccco2)=NS1(=O)=O` was inactive: -13.7%; that for `O=C(CSCc1ccccc1Cl)N1CCN(c2ccc(F)cc2)CC1` was inactive: -24%; that for `Cc1nnc(NCc2ccccc2)c2c1nnn2Cc1ccccc1Cl` was inactive: -22.3%. Turning to `COc1ccccc1CNC(=O)C1CCCN(S(=O)(=O)c2ccc3c(c2)CCCN3C(C)=O)C1` (stereo not given), the activation is inactive: -8.97%.

Turning to `O=C(Cn1ncc2c1-c1ccccc1OC2)N1CCN(c2ccccc2F)CC1`, the activation is active: 92.1%. Then `Cc1cccn2c(=O)c(C(=O)NCCCN3CCCCC3C)c(O)nc12` (stereo not given), with inactive: 1.49%; and `Cc1cc2oc(C(=O)Nc3c(C(=O)Nc4ccccc4)oc4ccccc34)cc(=O)c2cc1C`, with inactive: 1.6%.

Take `Cc1cccc(C)c1NC(=O)c1oc2ccc3c(c2c1C)C(=O)CC(C)(C)O3`: the activation was inactive: 9.19%. Then `CCc1ccccc1NC(=O)Cn1c(=O)n(Cc2ccc3c(c2)OCO3)c(=O)c2ccc(C(=O)NC3CCCCC3)cc21`, with inactive: -22.7%; and `Cc1ccccc1-c1nc(CS(=O)(=O)CC(=O)NCC(C)c2ccccc2)c(C)o1` (stereo not given), with active: 70%; and `CCc1ccc(OCC(=O)Nc2cc3oc4ccccc4c3cc2OC)cc1`, with inactive: 37.4%. The value for `COc1cc(OC)c(NC(=O)C2CCCN(c3ncnc4c3nc3n4CCCCC3)C2)cc1Cl` (stereo not given) was inactive: -10.1%; that for `O=C(COc1ccccc1Cl)NCC1(N2CCOCC2)CCCCC1` was inactive: -26.7%.

For the origin of these results see PubChem BioAssay AID1346428 (National Center for Advancing Translational Sciences (NCATS), 2018).
